# Measured values reported in the supplement of paper PMC13380429.
# Experiments:
# Assay in all cases: drug sensitivity score (DSS) for viability; higher = more toxic; extreme values may be limits of the assay
# Details in all cases: 72 h
# [1] = system: Calu-3
# [2] = system: HepG2
# [3] = system: Vero E6
# [4] = system: Caco-2
# [5] = system: U2OS
smiles,measurement,setting,value
Cc1nc2c(-c3cnc(N)nc3)nc(N3CCOCC3)nc2n1C(C)C [SB-2343],drug sensitivity score,[1],15.4
same,drug sensitivity score,[2],12.8
same,drug sensitivity score,[3],11.1
same,drug sensitivity score,[4],15.2
same,drug sensitivity score,[5],11.5
